Laboratory results: article PMC4336329 (PLoS ONE, 2015)
Out of some 310,000 compounds screened, about 2,200 (0.71%) showed an effect of 50% or more. Effects have a minus sign here. The list shows a part of the results.

Target: human ether-à-go-go-related gene (hERG) potassium channel (human, UniProt Q12809)
Assay: primary screen, population patch clamp on CHO cells stably expressing hERG

Chain of human ether-à-go-go-related gene (hERG) potassium channel (Q12809 whole entry, looked up): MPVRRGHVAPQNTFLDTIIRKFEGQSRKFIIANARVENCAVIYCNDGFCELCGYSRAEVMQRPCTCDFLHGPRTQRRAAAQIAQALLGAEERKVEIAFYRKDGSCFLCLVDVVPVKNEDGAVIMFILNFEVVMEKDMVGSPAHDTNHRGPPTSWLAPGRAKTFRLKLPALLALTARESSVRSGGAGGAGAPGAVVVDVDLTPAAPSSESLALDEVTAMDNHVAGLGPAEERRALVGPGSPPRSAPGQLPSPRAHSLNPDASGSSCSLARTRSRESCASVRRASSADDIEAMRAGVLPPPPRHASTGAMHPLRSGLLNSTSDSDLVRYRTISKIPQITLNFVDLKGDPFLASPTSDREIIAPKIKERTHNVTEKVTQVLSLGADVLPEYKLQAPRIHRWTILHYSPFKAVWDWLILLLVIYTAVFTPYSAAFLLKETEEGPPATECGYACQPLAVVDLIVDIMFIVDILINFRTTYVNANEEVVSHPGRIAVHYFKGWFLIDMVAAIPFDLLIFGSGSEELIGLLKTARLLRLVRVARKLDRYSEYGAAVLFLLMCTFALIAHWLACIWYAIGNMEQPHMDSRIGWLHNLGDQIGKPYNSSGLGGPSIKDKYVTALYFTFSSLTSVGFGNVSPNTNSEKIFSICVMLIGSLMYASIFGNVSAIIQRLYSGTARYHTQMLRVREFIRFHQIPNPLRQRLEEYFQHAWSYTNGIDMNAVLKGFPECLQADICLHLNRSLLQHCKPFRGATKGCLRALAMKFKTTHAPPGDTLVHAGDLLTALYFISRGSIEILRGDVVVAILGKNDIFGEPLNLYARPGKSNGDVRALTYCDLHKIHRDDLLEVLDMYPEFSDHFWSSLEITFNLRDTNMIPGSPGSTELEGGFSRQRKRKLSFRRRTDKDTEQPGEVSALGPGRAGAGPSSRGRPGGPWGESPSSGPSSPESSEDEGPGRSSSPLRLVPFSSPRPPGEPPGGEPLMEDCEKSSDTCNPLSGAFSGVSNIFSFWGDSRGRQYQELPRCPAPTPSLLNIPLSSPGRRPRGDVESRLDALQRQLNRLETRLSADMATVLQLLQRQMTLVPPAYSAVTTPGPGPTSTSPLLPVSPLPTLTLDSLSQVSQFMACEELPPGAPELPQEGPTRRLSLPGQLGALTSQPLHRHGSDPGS

Row | Structure (SMILES) | hERG current change (%, negative = inhibition) at 1uM [%]
1 | Cc1cc(C(=O)Nc2ccncc2)c2ccccc2n1 | 14.8
2 | O=C(Nc1ccc(N2C(=O)C3C4C=CC(C4)C3C2=O)cc1)Nc1cccnc1 (centres unmarked) | 8.09
3 | COc1ccc(N2CCN(C(c3cc(OC)ccc3OC)c3nnnn3CC3CCCO3)CC2)cc1.Cl (centres unmarked) | 4.77
4 | C/C(=N\NC(=O)c1cc(Br)ccc1O)c1cccc(NC(=O)c2ccccc2F)c1 | 17.3
5 | COc1cc(C)c(CN2CCN(C(C)C(=O)NC(C)c3ccccc3)CC2)cc1OC (centres unmarked) | 7.88
6 | S=c1[nH]nc(-c2cc(-c3ccccc3)n[nH]2)n1/N=C/C=C/c1ccccc1 | 15.4
7 | COC(=O)CN1C(=S)N(c2ccc(F)cc2)C(=O)C1CC(=O)Nc1ccccc1 (centres unmarked) | 6.16
8 | COc1cccc(C2CC(c3ccccc3)=NN2S(=O)(=O)c2ccc(C)cc2)c1OC (centres unmarked) | 8.6
9 | O=C(CN1CCC(n2nnc3cc(C(F)(F)F)ccc32)CC1)Nc1ccc2c(c1)OCCO2 | -0.172
10 | CCC1(C)Cc2c(sc3nc(SC)nc(N)c23)CO1 (centres unmarked) | 8.9
11 | CCOC(=O)C1=C(C)N(C)C(=S)N(C)C1c1ccc(OC)cc1 (centres unmarked) | 8.17
12 | COc1ccc(C(=O)OCc2ccccc2F)cc1S(=O)(=O)N1CCCC1 | 6.72
13 | CC(C)(C)OC(=O)NCc1ccc(CNC(=O)c2nc[nH]c2C(=O)N2CCc3ccccc3C2)cc1 | 4.61
14 | CCOc1cnn(-c2cc(Oc3ccc(C)cc3)ncn2)c(=O)c1Cl | 3.88
15 | COc1ccccc1NC(=O)CNC(=O)c1ccccc1 | 5.61
16 | CC1CC(C)CN(CCCNC(=O)CC2Oc3ccccc3NC2=O)C1 (centres unmarked) | -0.865
17 | O=C(Nc1nnc(COc2ccc(F)cc2)s1)Nc1ccccc1F | 9.57
18 | O=C(Nc1ccc(Cl)cc1N1CCOCC1)C1CC1 | 15.1
19 | COc1ccc(N2CCN(C(=O)c3ccncc3)CC2)cc1 | -15.1
20 | CCOC(=O)N1CCN(C(=O)CSc2ccc(-c3ccncc3)nn2)CC1 | 8.65
21 | CC(C)(C)NC(=O)CSc1ncnc2c1cnn2-c1ccccc1 | 2.16
22 | NC(=O)c1cc(C(=O)c2ccc(Cl)cc2)c[nH]1 | 17
23 | O=C(NCCc1nc2ccccc2[nH]1)/C(=C/c1ccc2c(c1)OCO2)NC(=O)c1ccccc1 | -14.2

Row | Structure (SMILES) | hERG current change (%, negative = inhibition) at 1uM [%]
24 | CCOc1ccc2nc(SC(C)C(N)=O)[nH]c2c1 (centres unmarked) | 15.5
25 | O=C(CCc1nc2ccccc2s1)c1ccccc1 | 18.4
26 | C1CCCC(NC2=NCCO2)CCC1 | 9.24
27 | CC(=O)Nc1ccc(NC(=O)CSc2nnc(NC(=O)C3CC3)s2)cc1 | 5.05
28 | Cc1noc(C)c1S(=O)(=O)N1CCN(c2ccc([N+](=O)[O-])cc2)CC1 | -41.4
29 | CCn1c(SCC(=O)NC(C)c2ccccc2)nc2ccccc21 (centres unmarked) | 17.2
30 | Cc1cs/c(=N\N=C\c2cccc([N+](=O)[O-])c2)n1Cc1ccco1 | 12
31 | CCOc1ccc(/C=C/C(=O)N2CCOCC2)cc1OC | 2.44
32 | Cc1ccccc1CN1CCc2c(OCC(=O)N3CCCc4ccccc43)cccc2C1=O | 15.6
33 | CCS(=O)(=O)c1ccc(C(=O)Nc2cccc(Cl)c2)c(Cl)c1Cl | 10.5
34 | COc1ccc(Cl)cc1-c1nc(SCC(=O)NCC2CCCO2)n[nH]1 (centres unmarked) | 10.9
35 | CCCCC1=NN2C(=N)CC(=O)N=C2S1 | 7.46
36 | CCc1ccc(S(=O)(=O)NCc2cn3ccccc3n2)s1 | -3.39
37 | CCN1c2ccccc2S(=O)(=O)c2ccccc21 | 4.94
38 | COc1ccc(NC2CCCN(C(=O)c3ccc(C)nc3)C2)cc1 (centres unmarked) | 2.9
39 | CCCCCN(C(=O)CCC(=O)OCC(=O)N(C)Cc1ccc(C)cc1)c1c(N)n(CCCC)c(=O)[nH]c1=O | 20.5
40 | O=C(Oc1ccc2ccc(=O)oc2c1)N1CCOCC1 | 5.75
41 | Cc1ccccc1NS(=O)(=O)c1ccc(C)c(NS(C)(=O)=O)c1C | 15.6
42 | CCn1c(SCC(=O)NC2CCCc3ccccc32)nnc1-c1cccs1 (centres unmarked) | -3.73
43 | O=[N+]([O-])c1ccccc1Nc1ccc(O)cc1 | 15.1
44 | Cc1ccc(NC(=O)c2ccc3c(c2)NC(=O)CS3)nc1 | 9.74
45 | O=C(c1cccc(F)c1)N1CCN(C(=O)C2CC2)CC1 | 12.3
46 | Cc1ccc(N(C(=O)c2snc(C(N)=O)c2N)C(C(=O)NC2CCCC2)c2ccncc2)cc1 (centres unmarked) | 13.2

Row | Structure (SMILES) | hERG current change (%, negative = inhibition) at 1uM [%]
47 | COc1ccccc1N1C(=O)CC(c2ccccc2)CC1=O | 12.5
48 | Cn1c(N)c(C(=O)c2cc(-c3ccccc3)nc3ccccc23)c(=O)n(C)c1=O | -1.75
49 | O=C1CC(/C=C/c2ccco2)=Nc2ccccc2N1 | 2.3
50 | CCO[C@H]1OC(C(N)=O)=C[C@@H](c2coc3ccccc3c2=O)[C@@H]1CCCO | 9.64
51 | CCOC(=O)N1CCC(Nc2c(OCC)c(=O)c2=O)CC1 | 10.7
52 | O=C(OCC(=O)N1CCN(c2ccccc2)CC1)c1ccc2ncsc2c1 | 1.45
53 | Cc1cccc(NC(=O)CS(=O)CC(=O)Nc2cnc3ccccc3c2)c1C (centres unmarked) | 8.1
54 | COc1cc(OC)cc(OC(=O)C2CCN(C(=O)c3ccc(F)cc3)CC2)c1 | 6.59
55 | COc1ccc(C)cc1NC(=O)c1cc(S(=O)(=O)N2CCCC2)cn1C | 9.7
56 | O=C1/C(=C/c2ccc(Cl)cc2)SC(=S)N1CCC(=O)N1CCCCC1CCO (centres unmarked) | 13.9
57 | O=C(Nc1scc(-c2cccs2)c1C(=O)O)c1cccs1 | 9.97
58 | Cc1ccccc1/C(N)=N/O | 3.32
59 | C/C(Cn1nnc2ccccc21)=N\NC(=O)c1cccc(Br)c1 | 0.0846
60 | Cc1cccc(Nc2nc(N)nc(CN3CCN(Cc4ccc5c(c4)OCO5)CC3)n2)c1 | -74.3
61 | O=C(CCCC1=NS(=O)(=O)c2ccccc2N1)NCCc1ccc(Cl)cc1 | 10.6
62 | Cc1ccc(Nc2nnc(SCC(=O)NC(Cc3c[nH]c4ccccc34)C(=O)O)s2)cc1 (centres unmarked) | 13.1
63 | C=CCNC(=O)c1ccc(C)c(Br)c1 | 9.1
64 | COc1cc(C2Nc3ccc4ccccc4c3C3=C2C(=O)CC(C)(C)C3)ccc1OC(C)C(=O)O (centres unmarked) | 13.4
65 | CC1=CCC2C(=O)N(c3ccc(N4CCOCC4)cc3)C(=O)C2C1 (centres unmarked) | 7.46
66 | COc1ccc([N+](=O)[O-])cc1N(CC(=O)NCCCOC(C)C)S(C)(=O)=O | 8.33
67 | CCCC/C=C1\CCc2c([nH]c3ccccc23)C1=O | 11.6
68 | O=C1CCCCC1C(O)c1ccc(Cl)cc1 (centres unmarked) | 10.2
69 | COc1ccc(OC)c(S(=O)(=O)NCCO)c1 | 12.2

Row | Structure (SMILES) | hERG current change (%, negative = inhibition) at 1uM [%]
70 | NC(=O)CSc1ncc(-c2ccc([N+](=O)[O-])cc2)[nH]1 | 4.81
71 | Cc1ccc(S(=O)(=O)c2ccc(Cl)cc2)cc1S(=O)(=O)NC(C)C(=O)O (centres unmarked) | 20.1
72 | Brc1ccc(-c2noc(-c3ccccc3)n2)o1 | 9.37
73 | CSc1nc2c(cnn2-c2ccc(C)c(C)c2)c(=O)[nH]1 | 19.3
74 | COc1ccc(S(=O)(=O)N2CCCCC2)cc1NC(=O)c1ccc(N2CCCC2=O)cc1 | 0.726
75 | CC(C)N(C(=O)Cn1cc(S(=O)(=O)CC(=O)NCc2ccccc2)c2ccccc21)C(C)C | 9.05
76 | CCOC(=O)Cn1nc(/C=C/c2ccccc2)ccc1=O | 14.4
77 | O=C(NC(=S)Nc1ccc(Cl)cn1)C(c1ccccc1)c1ccccc1 | 4.32
78 | O=C(c1ccco1)N1CCN(C(=S)Nc2cccc([N+](=O)[O-])c2)CC1 | -14.2
79 | CCN(CC)C(=O)CSc1nnc(-c2cc3ccccc3cc2O)n1CC | -7.92
80 | COc1cccc(N2CCN(c3ccc4nnc(CCC(=O)Nc5ccccn5)n4n3)CC2)c1 | -24.6
81 | COc1cc(/C=N/n2nnnc2N)cc(OC)c1OC | 4.9
82 | COc1ccc(CCNc2ncnc3c2c(C)c(C)n3CCCN(C)C)cc1OC | 7.69
83 | Cc1ccc(NC(=O)CNC(=O)COc2ccccc2)nc1 | 0.125
84 | C#C[C@@]1(O)CCC2C3CCC4=C/C(=N/OCC(=O)NC(CCC(N)=O)C(=O)O)CC[C@]4(C)C3CC[C@@]21C (some centres unmarked) | 15.5
85 | C/C(=N\NC(=O)c1cc(-c2cccs2)nc2ccccc12)c1ccccn1 | 14.9
86 | O=C(Cc1ccccc1)Nc1nnc(-c2ccco2)o1 | 4.19
87 | CCc1ccc(C(=O)CCC(=O)Nc2ccc(OC)c(S(=O)(=O)N3CCCCC3)c2)cc1 | -1.32
88 | COC(=O)c1c(C)oc2ccc(NS(=O)(=O)c3cc(OC)ccc3OC)cc12 | 15.1
89 | O=C(CSc1cn[nH]n1)Nc1cccc(C(=O)O)c1 | 7.78
